In PubChem BioAssay AID1671193 (National Center for Advancing Translational Sciences (NCATS), 2021):
Out of some 150,000 compounds screened, about 180 (0.12%) were called active. Inconclusive means that the source gave no clear call. Such entries were picked first, then a sample of the others. The call rests on the fitted dose curve; in most records, active means well fitted cell-killing curve with a large enough effect; inconclusive means small, poorly fitted or top-dose-only effect, or effect the other way; inactive means flat fitted curve, though single readings scatter. Potencies beside an inconclusive call are fits to weak or partial responses and may not hold up.
Potency means the concentration at half of the fitted maximal effect; tags describe the fitted curve by direction and shape.

Experiment: GF-AFC viability counterscreen for inhibitors of alpha-synuclein gene (SNCA) expression; further: nearly all actives have a fitted effect of over 30% in size;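 on activity change, negative = cytotoxicity: 0% = DMSO-treated cells and -100% = medium-only wells without cells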
Settings: HEK-293-SNCA-luc viability, GF-AFC fluorescence, 24 h; activity change, negative = cytotoxicity: at 57.1 µM (top of the series) unless noted
Outline: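 Cytotoxicity counterscreen: after 24 h compound treatment of genome-edited SNCA-luciferase HEK-293 cells, live-cell protease substrate GF-AFC read by fluorescence after 30 min; activity scaled between DMSO (0%) and medium-only (-100%), curves Hill-fitted.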
For `COc1ccc(C(=O)NC2CCN(c3cn[nH]c(=O)c3)CC2)cc1`, the Potency was inconclusive: 3.55 µM [cytotoxic, single point]. In the case of `Cc1nc(N2CCCCCC2)ncc1C(=O)O`, the Potency is reported as inconclusive: 3.16 µM [cytotoxic, full curve, poor fit]. In the case of `Cc1cccc(C(=O)N2C(C(=O)NCC3CCCO3)COC23CCC(C)CC3)c1` (stereo not given), the Potency is reported as inconclusive: 6.31 µM [cytotoxic, single point]. In the case of `CCCNC(=O)[C@@H]1Cc2cn(Cc3ccncc3)c3cccc(c23)[C@H](CC(C)C)N1`, the Potency is reported as inconclusive: 44.7 µM [cytotoxic, partial curve, poor fit]. For `Cc1nn2c(C)c(C(=O)NC(C)c3ccccc3)cnc2c1-c1ccc(F)cc1` (stereo not given), the Potency was inconclusive: 2.51 µM [rising, full curve, poor fit]. For `Cc1nc(CN2C[C@H](C(=O)Nc3cccc(Cl)c3)C[C@@H]2c2ccc(F)cc2)cs1`, the Potency was inconclusive: 56.2 µM [cytotoxic, single point]. In the case of `CCOc1ccc(CNC(=O)C2CCCN(c3nnc(C)c4c(C)n(-c5ccccc5)nc34)C2)cc1` (stereo not given), the Potency is reported as inconclusive: 3.98 µM [cytotoxic, full curve]. With `CN(Cc1ccccc1)C(=O)c1ccc(CSc2nc3cccnc3n2Cc2ccccc2F)cc1` the Potency was inconclusive: 39.8 µM [cytotoxic, single point]. For `Cc1ccc(C2C=C(c3ccccc3)Nc3nc(NS(=O)(=O)c4ccccc4)nn32)cc1` (stereo not given), the Potency was inconclusive: 22.4 µM [rising, partial curve]. For `COc1cccc(/C=C/c2nc(C#N)c(N3CCC(C(N)=O)CC3)o2)c1`, the Potency was inconclusive: 17.8 µM [rising, partial curve, poor fit]. In the case of `CCN(CC)c1cc(C)c2cc(NC(=O)/C=C/c3cc(OC)c(OC)c(OC)c3)ccc2n1`, the Potency is reported as inconclusive: 31.6 µM [cytotoxic, single point]. For `O=C(Cn1nnnc1-c1ccccc1F)Nc1ccc(OC(F)(F)F)cc1`, the Potency was inconclusive: 10 µM [rising, partial curve, poor fit]. With `COCCN1Cc2ccc(Nc3cccnc3)nc2C(C)(C(=O)NCc2ccncc2)C1` (stereo not given) the Potency was “inactive”. With `Cc1cccc(CN2CCC3(CC2)OC(=O)N(Cc2cccnc2)C3(C)c2ccccc2)c1` (stereo not given) the Potency was inconclusive: 20 µM [cytotoxic, partial curve, poor fit]. With `CC1=NS(=O)(=O)N(Cc2ccccc2)C=C1C(=O)OCc1nc(-c2ccccc2F)no1` the Potency was “inactive”. In the case of `Cc1ccc(NC(=O)CN2CCSc3ccc(S(=O)(=O)N4CCCC4)cc32)cc1C`, the Potency is reported as inconclusive: 28.2 µM [cytotoxic, partial curve]. In the case of `CCCC(=O)N1Cc2ccccc2CC2(CCCN(Cc3ccccc3)C2)C1` (stereo not given), the Potency is reported as inconclusive: 39.8 µM [cytotoxic, single point]. For `O=C(NC1C[C@H]2CC[C@@H](C1)N2C(=O)CCCc1ccccc1)c1ccc(F)cc1` (stereo not given in full), the Potency was inconclusive: 28.2 µM [cytotoxic, single point]. With `O=C(CN1C(=O)COc2ccc(S(=O)(=O)Nc3ccccc3)cc21)Nc1cccc(Cl)c1` the Potency was inconclusive: 31.6 µM [cytotoxic, single point]. In the case of `C[C@H]1CCCN1C(=O)c1nnc(CNCCCn2ccnc2)n1-c1ccccc1`, the Potency is reported as “inactive”. In the case of `CCN1c2cc(C(=O)Nc3ccc(C)cc3)ccc2C(=O)N2CCCC21` (stereo not given), the Potency is reported as inconclusive: 2.24 µM [cytotoxic, partial curve, poor fit]. With `CCCCc1nc2cc(C(=O)N3CCCC3c3cc(C(C)C)on3)ccc2o1` (stereo not given) the Potency was inconclusive: 39.8 µM [cytotoxic, single point]. For `CCc1c(-c2ccccc2)nc2ccccc2c1C(=O)NCc1ccc(C)cc1`, the Potency was inconclusive: 20 µM [cytotoxic, partial curve]. For `COc1cc(NC(=O)Cn2c(=O)n(Cc3ccco3)c(=O)c3oc4ccccc4c32)cc(OC)c1`, the Potency was inconclusive: 15.8 µM [cytotoxic, partial curve, poor fit]. In the case of `C#CCNC(=O)C1CCCN(Cc2cccc(-c3cccs3)c2)C1` (stereo not given), the Potency is reported as “inactive”. In the case of `CC1(C(=O)NCc2cccnc2)CCc2cnc(Nc3ccccc3)nc21` (stereo not given), the Potency is reported as inconclusive: 25.1 µM [cytotoxic, partial curve, poor fit]. With `CCCN(CCC)S(=O)(=O)c1ccc2c(c1)N(CC(=O)NC(C)c1ccccc1)C(=O)CS2` (stereo not given) the Potency was inconclusive: 39.8 µM [cytotoxic, single point]. For `Cc1[nH]c(-c2ccccc2)nc1C(=O)N1CCn2nc(CCC(=O)O)cc2C1`, the Potency was “inactive”. In the case of `Cn1ccnc1C(=O)N1C[C@@H](Oc2ccccc2)C[C@H]1C(=O)N1CCOCC1`, the Potency is reported as “inactive”. With `O=C(NC1CCN(c2nccc(Nc3ccccc3F)n2)CC1)c1ccc(C(F)(F)F)cc1` the activity change, negative = cytotoxicity was inactive: -6.64% [at 12.5 µM]. In the case of `O=C(CN1CCCc2nc(-c3ccncc3)ncc2C1=O)NCCN1CCOCC1`, the Potency is reported as “inactive”. With `O=C1Cc2c(-c3ccccc3OCc3ccccc3)n[nH]c2CN1Cc1ccccc1` the Potency was “inactive”. With `CCn1c(=N)c(C(=O)NC2CCCCC2)cc2c(=O)n3cc(C)ccc3nc21` the Potency was inconclusive: 20 µM [rising, partial curve, poor fit]. For `Cn1c(=O)c(-c2cccs2)nc2cnc(N3CCNCC3)nc21`, the Potency was inconclusive: 15.8 µM [rising, partial curve]. With `O=C1Nc2ccc(-c3cccs3)cc2C(=O)N2CC[C@H](NS(=O)(=O)c3ccc(Cl)cc3)C[C@@H]12` the Potency was “inactive”. With `Cc1ccc(C2=CC(c3c(F)cccc3Cl)n3ncnc3N2)cc1C` (stereo not given) the Potency was inconclusive: 39.8 µM [rising, single point]. With `Cn1ncc(C(=O)N2CCN(c3ccc(F)cc3)CC2)c1C1CCN(C(=O)OC(C)(C)C)CC1` the Potency was inconclusive: 39.8 µM [cytotoxic, single point]. With `CCCN1C(=O)C(Cc2nc3ccccc3c(=O)n2-c2cccc(C)c2)c2ccccc21` (stereo not given) the Potency was inconclusive: 12.6 µM [cytotoxic, partial curve]. For `CN(C)c1ccc(CN[C@H]2CC(C)(C)[C@@H]3C[C@@](C)(O)CC[C@]23CCC(=O)NCCc2c[nH]c3ccccc23)cc1`, the Potency was inconclusive: 39.8 µM [cytotoxic, single point]. For `CNC(=O)c1ccc(C2CCCN2C(=O)CCc2cc3n(n2)CCCNC3)s1` (stereo not given), the Potency was “inactive”. With `Cc1cc(C)cc(-c2ccc(CN3CCCC3C(=O)NCC(F)(F)F)cc2)c1` (stereo not given) the Potency was inconclusive: 39.8 µM [cytotoxic, single point]. For `C=C(C)C(=O)O[C@H]1[C@H]2C(=C)C(=O)O[C@@H]2C[C@@H](C)/C=C\C(=O)[C@](C)(O)[C@@H]1OC(C)=O`, the Potency was inconclusive: 11.6 µM [cytotoxic, partial curve, poor fit]. In the case of `CCC(Sc1nc2nccnc2c(=O)n1Cc1ccc(OC)cc1)C(=O)NC1CCCCC1` (stereo not given), the Potency is reported as inconclusive: 31.6 µM [cytotoxic, single point]. In the case of `O=C(Cc1ccc(N(Cc2ccccc2)C(=O)c2ccco2)cc1)Nc1ccccc1`, the Potency is reported as inconclusive: 3.55 µM [cytotoxic, full curve, poor fit]. With `CC(=O)Nc1ccc(C(=O)N2CCCN(c3cc(-c4ccc(Cl)cc4)[nH]n3)CC2)cc1` the Potency was “inactive”. With `CC(C)Sc1ncc(Cl)c(C(=O)Nc2ccc(S(=O)(=O)N(C)c3ccccc3)cc2)n1` the Potency was “inactive”. For `N#Cc1cccc(C2CCN(C(=O)C3CCN(C(=O)C4CC4)CC3)CC2)c1`, the Potency was inconclusive: 17.8 µM [rising, partial curve, poor fit]. With `CCNc1ncc2nc(-c3ccccc3)c(=O)n(Cc3cccc(OC)c3)c2n1` the Potency was inconclusive: 39.8 µM [rising, single point]. With `Cc1cnc(CC2CCCN(S(=O)(=O)c3ccc4c(c3)OCCO4)C2)n1C(C)C` (stereo not given) the Potency was inconclusive: 17.8 µM [cytotoxic, single point]. In the case of `COc1ccc(-c2cc3nc4c(c(=O)n3[nH]2)CN(C(=O)c2ccc(C)nc2)CC4)cc1`, the Potency is reported as inconclusive: 15.8 µM [rising, partial curve, poor fit]. In the case of `Cc1ccc(Nc2ccnc(N3CCCC3C(=O)NCC3CC3)n2)cc1` (stereo not given), the Potency is reported as inconclusive: 6.31 µM [cytotoxic, single point]. In the case of `COc1ccc(NC(=O)C2(C)CCCc3cnc(NCc4ccccc4)nc32)cn1` (stereo not given), the Potency is reported as inconclusive: 20 µM [cytotoxic, partial curve, poor fit]. In the case of `CCC1CN(C(=O)N2CCC(C(=O)NCc3ccccc3C)CC2)c2ccccc2O1` (stereo not given), the Potency is reported as inconclusive: 1.26 µM [rising, full curve, poor fit]. In the case of `COc1cccc(Cn2c(=O)cnc3cnc(Nc4ccccc4)nc32)c1`, the Potency is reported as inconclusive: 2.82 µM [cytotoxic, partial curve, poor fit]. With `COc1cc(-c2nn(C3CCC(N4CCN(C(C)=O)CC4)CC3)c3ncnc(N)c23)ccc1NC(=O)c1cc2ccccc2n1C` (stereo not given) the Potency was inconclusive: 30.4 µM [cytotoxic, partial curve, poor fit]. With `COc1ccccc1N1CCN(CCCCNS(=O)(=O)c2cccc3c(N(C)C)cccc23)CC1` the Potency was inconclusive: 7.94 µM [cytotoxic, partial curve, poor fit]. With `Cc1cc(CNC(=O)c2cc(-c3ccccc3C)cc3c2OCCN3C)no1` the Potency was “inactive”. With `Cc1ccc([S+](=O)([O-])NCCNC(=O)c2cccc(-c3ncccc3C#N)c2)cc1` the Potency was “inactive”. With `COCC(=O)N1CCCC(c2noc(COc3ccccc3)n2)C1` (stereo not given) the activity change, negative = cytotoxicity was inactive: -12.2% [at 12.5 µM]. For `COCCC1(NC(=O)c2ccccc2)CCN(S(=O)(=O)c2ccc(C#N)cc2)CC1`, the Potency was inconclusive: 2 µM [cytotoxic, partial curve, poor fit].
